# Test results taken from PubChem BioAssay AID686979 (National Center for Advancing Translational Sciences (NCATS), 2013).
# The whole screen tested about 420,000 compounds, of which about 50,000 (12%) were called active. The inconclusive results got no clear call from the source; some entries with a clear call stand among them for comparison. Calls follow the shape of the dose curve; as a rule, active = well fitted inhibition curve with a large enough effect; inconclusive = small, poorly fitted or top-dose-only effect; inactive = flat fitted curve, though single readings scatter. No potency is given beside an inconclusive call; the fits are too rough.
# Assay: qHTS for Inhibitors of human tyrosyl-DNA phosphodiesterase 1 (TDP1): qHTS in cells in presence of CPT; also: nearly all actives have a fitted effect of over 55% in size
# Conditions: chicken DT40 Tdp1-/-;hTDP1 cells + 20 nM CPT, ATP luminescence, 48 h; activity change, negative = growth inhibition: at 46.2 µM (top of the series) unless noted
# Outline: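 Cell growth measured by CellTiter-Glo luminescence after a minimum 48 h, 37 C compound exposure with 20 nM CPT in Tdp1-knockout DT40 cells stably expressing hTDP1, seeded 400/well; qHTS titration format.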
# % is scaled to controls: 0 for no effect and ±100 for the full control effect; potency is read from the fitted curve at half-maximal effect; tags tell the direction and shape of the fitted curve.
SMILES,Potency,"activity change, negative = growth inhibition"
CCCN1C(=O)C(Cc2nc3ccccc3c(=O)n2-c2ccc(OC)cc2)c2cc(C)ccc21 (configuration not stated),active: 9.2 µM,–
Cc1cc(NCc2ccccn2)ccc1Br,"inconclusive [inhibitor, single point]",–
C=CCc1cc(Cl)ccc1OCCN(C)C,–,inactive: -8.69%
CCCN(C(=O)Nc1cn(CC(C)C)c(=O)c2ccccc12)c1ccc(F)cc1,active: 7.31 µM,–
CN(C)c1cccc2c(/C=N/O)ccc(N(C)C)c12,–,inactive: 18.6%
COCCN(C(=O)c1csnn1)C(C(=O)NC1CCCC1)c1ccccc1F (configuration not stated),–,inactive: -0.962%
CC(OC(=O)c1cc(Br)ccc1O)C(=O)Nc1ccc(S(=O)(=O)N2CCCC2)cc1 (configuration not stated),"inconclusive [inhibitor, single point]",–
CCc1ccc(-c2cc3c(=O)n(CC(=O)NCCCN4CCN(CC)CC4)nc(C)n3n2)cc1,active: 18.4 µM,–
Cc1cc(NC(=O)CN2CCC(n3nnc4cc(C(F)(F)F)ccc43)CC2)no1,"inconclusive [inhibitor, single point]",–
CCN(CC)S(=O)(=O)c1ccc(N2CCCC2)c(NC(=O)Cc2ccc(OC)cc2)c1,"inconclusive [inhibitor, single point]",–
CN1CC(=O)N=C1N,inactive,–
Cc1cc(C(=O)NCc2ccccc2Cl)c2c(C)nn(-c3cccc(F)c3)c2n1,"inconclusive [inhibitor, single point]",–
COc1ccc(C)cc1NC(=O)n1ncc2cc(Cl)ccc21,–,inactive: -10.8%
Cc1ccc2oc(=O)n(CCNC(=O)Nc3ccc(Cl)cc3)c2c1,active: 23.1 µM,–
COc1ccc(/C=C/c2sc3ccccc3[n+]2CCCCI)cc1OC,active: 7.94 µM,–
Cc1ccc(Cn2nnc3c(=O)[nH]c(C4CCN(C(=O)Cc5cccs5)CC4)nc32)cc1,"inconclusive [inhibitor, single point]",–
COc1ccc2oc(C(=O)N(C)Cc3ccc4c(c3)OCCO4)c(C)c2c1,"inconclusive [inhibitor, single point]",–
O=C(O)c1ccc2c(=O)n3c(nc2c1)/C(=C/c1ccccc1OC(F)F)CC3,"inconclusive [inhibitor, single point]",–
CCN(CC)CCCNc1oc(-c2cccc(Cl)c2)nc1C#N,"inconclusive [inhibitor, single point]",–
CC(=O)N1CCc2c(sc3c2c(=O)n(-c2ccc(C)cc2)c(=O)n3Cc2ccccc2C)C1,"inconclusive [inhibitor, single point]",–
COC(=O)[C@H](Cc1ccccc1)NC(=O)NCCc1ccccc1F,–,inactive: -0.318%
Cc1ccccc1NC(=S)NCc1ccc2c(c1)OCO2,–,inactive: -15.9%
Cc1ccc(C(=O)Nc2ccc3oc(-c4ccccc4C)nc3c2)cc1,"inconclusive [inhibitor, single point]",–
CCCC(=O)c1ccc(N2CCN(C(=O)c3ccccc3)CC2)c(F)c1,"inconclusive [inhibitor, single point]",–

SMILES,Potency,"activity change, negative = growth inhibition"
Cc1[nH]c2ccccc2c1-c1csc(NC(=O)CSCC(=O)O)n1,"inconclusive [inhibitor, single point]",–
O=c1[nH]c(SCc2nc3ccccc3n2Cc2ccccc2)nc2ccccc12,–,inactive: -25.8%
CC(=O)NCc1nc2ccccc2n1Cc1ccccc1C,–,inactive: -18.4%
Cc1cc(C)nc(N2CCCC(C(=O)NCC(c3ccccc3)c3ccccc3)C2)n1 (configuration not stated),"inconclusive [inhibitor, partial curve]",–
CC(=O)c1cccc(NC(=O)c2ccc(-c3c(C)noc3C)c3ccoc23)c1,active: 16.4 µM,–
Cc1cc(NC(=O)c2cccn2-c2nnc(N3CCCCC3)s2)ccc1Br,"inconclusive [inhibitor, single point]",–
CCn1cc(Br)c(C(=O)Nc2sc3c(c2C(N)=O)CCCC3)n1,–,inactive: -12.2%
S=c1[nH]c2ccc3ccccc3c2[nH]1,–,inactive: -13.3%
O=C(OCc1ccc(F)cc1)c1cc(S(=O)(=O)N2CCCCC2)ccc1N1CCOCC1,active: 29.1 µM,–
CC1CCN(C(C(=O)Nc2ccc3c(c2)OCO3)c2ccccc2)CC1 (configuration not stated),–,inactive: -16.9%
CC(CS(=O)(=O)c1ccc2c(c1)NC(=O)CS2)C(=O)NCc1ccccc1Cl (configuration not stated),"inconclusive [inhibitor, single point]",–
c1csc(-c2csc3ncnc(NCCCN4CCOCC4)c23)c1,active: 16.4 µM,–
CCCCCCCCNCCS(=O)(=O)NCc1ccccc1,"inconclusive [inhibitor, single point]",–
O=C(Nc1cccs1)Nc1ccccc1Br,"inconclusive [inhibitor, single point]",–
Cc1cc(C)cc(NC(=O)CSc2nc3sc4c(c3c(=O)[nH]2)CCCC4)c1,–,inactive: -20.8%
Cc1cc(Cl)ccc1NC(=O)CCCn1nc(C)c2c(C)n(-c3ccccc3)nc2c1=O,"inconclusive [inhibitor, single point]",–
COc1ccccc1N1CCN(C(=O)CN(C)S(=O)(=O)c2ccc(C)cc2)CC1,"inconclusive [inhibitor, single point]",–
CCN1CCN(c2ccc(S(=O)(=O)N3CCCCC3)cc2NC(=O)/C=C/c2ccc(OC)c(OC)c2)CC1,"inconclusive [inhibitor, single point]",–
CC(C)CNC(=O)c1cc(-c2ccc(Cl)c(Cl)c2)on1,"inconclusive [inhibitor, single point]",–
O=C(NCCc1ccccn1)c1ccc2nc(Cc3ccccc3F)oc2c1,"inconclusive [inhibitor, partial curve]",–
COc1ccc(-c2oc3cccnc3c2/C=C/c2ccc(OC)c(OC)c2)cc1,"inconclusive [inhibitor, single point]",–
O=C1COc2ccc(C(=O)CCl)cc2N1,active: 5.8 µM,–
O=c1c2c(nc3cc(-c4ccccc4)[nH]n13)CCC2,–,inactive: 4.54%
CN1CCN(c2ccc(NC(=O)COc3ccc4ccccc4c3)cc2)CC1,"inconclusive [inhibitor, partial curve]",–

SMILES,Potency,"activity change, negative = growth inhibition"
CC(C)C1C(=O)N(Cc2cn(CC3CCCCC3)nn2)CCS(=O)(=O)N1Cc1ccc(-c2cccc(CO)c2)cc1 (configuration not stated),active: 18.4 µM,–
COc1ccc(OC)c(C2C(C(=O)O)c3ccccc3C(=O)N2C)c1 (configuration not stated),–,inactive: 4.38%
c1ccc(C[C@H]2CN=C(Nc3ccccc3)N2CCCC2CCCCC2)cc1,"inconclusive [inhibitor, single point]",–
CCCCN(CCCC)C(=O)C1(P(=O)(c2ccccc2)c2ccccc2)CCC1,"inconclusive [inhibitor, single point]",–
O=C(c1ccc(F)cc1)N1CCN(S(=O)(=O)c2ccc3c(c2)OCCO3)CC1,"inconclusive [inhibitor, partial curve]",–
COc1cccc(C(=O)NC(=S)Nc2nnn(C)n2)c1,"inconclusive [inhibitor, partial curve, poor fit]",–
Cc1cnc2c(C)ccc(C)c2c1/C=C/c1ccc(N(C)C)cc1,"inconclusive [inhibitor, single point]",–
O=S(=O)(c1ccccc1)c1nnn2c1nc(NC1CCN(Cc3ccccc3)CC1)c1cc(Cl)ccc12,active: 7.31 µM,–
O=C(Cc1ccccc1F)Nc1ccc(S(=O)(=O)N2CCCC2)cc1,"inconclusive [inhibitor, single point]",–
Cc1ccc(C(=O)C2Oc3ccccc3C3CC(c4ccc(C)cc4)=NN23)cc1 (configuration not stated),"inconclusive [inhibitor, single point]",–
CNC(=S)N/N=C/c1c(Cl)cccc1Cl,"inconclusive [inhibitor, single point]",–
C/C(=N\NC(=O)C1CC1)c1ccccc1Br,–,inactive: -15.7%
CCCS(=O)(=O)c1c(S(=O)(=O)CCC)c2ccc(C(C)=O)cn2c1C(=O)OC,"inconclusive [inhibitor, single point]",–
Cc1c(Cl)cccc1NC(=O)Cn1c(=O)n(Cc2nc(-c3ccccc3)no2)c(=O)c2cc3c(cc21)OCO3,"inconclusive [inhibitor, single point]",–
C=CCSc1nccc(-c2nn(-c3ccc(C)cc3)ccc2=O)n1,active: 7.31 µM,–
Fc1ccccc1CNCCC(Cc1ccccc1)c1ccc2c(c1)OCO2 (configuration not stated),"inconclusive [inhibitor, single point]",–
COc1ccccc1NS(=O)(=O)c1cc(NC(=O)C(C)C)ccc1N1CCCCC1,"inconclusive [inhibitor, single point]",–
C[C@H](NS(=O)(=O)c1c(Cl)cccc1Cl)C(=O)NNC(=O)COc1ccccc1F,–,inactive: -20.8%
CCC(C)NCCCCOc1ccc(C)cc1[N+](=O)[O-] (configuration not stated),–,inconclusive: -33.3% [inhibitor]
N#CCCn1cc(/C=N/NC(=O)c2ccncc2)c(-c2ccc(F)cc2)n1,–,inactive: 4.97%
CSc1ccc(CCNC(=O)c2cc3cc4cc(C)ccc4nc3s2)cc1,"inconclusive [inhibitor, partial curve]",–
OC(c1ccc(F)cc1)(C1CCCCC1)C(CN1CCOCC1)c1ccccc1 (configuration not stated),"inconclusive [inhibitor, single point]",–
CCOC(=O)[C@]12CCCC=C1N(Cc1ccccc1)C(=O)[C@H](CC(=O)NCc1ccc(OC)c(OC)c1)C2,"inconclusive [inhibitor, partial curve]",–
COC(=O)c1sccc1NC(=O)c1cc(C)on1,–,inconclusive: -7.31% [inhibitor]
